Columns and labels:
[1] = target: T1, FcgammaRIIIa genotype variant 158V (UniProt P08637 in part); assay: BIAcore 3000 steady-state, FcgammaRIIIa 158V captured on anti-histidine chip, antibody flowed
T1 construct: the tag is not described; also called Fc-gamma-RIIIa (variant 158V); FcgammaRIIIA 158V

FcRn = target: T2, FcRn (UniProt P55899 in part; P61769 in part, limits assumed); assay: BIAcore 3000 steady-state, FcRn amine-coupled to the chip, antibody flowed
T2 construct: Directly immobilised on the BIAcore chip by amine coupling; also called neonatal Fc receptor

FcRn, sequence (P55899 24-297 limits assumed, form in doubt, chain 1 of 2): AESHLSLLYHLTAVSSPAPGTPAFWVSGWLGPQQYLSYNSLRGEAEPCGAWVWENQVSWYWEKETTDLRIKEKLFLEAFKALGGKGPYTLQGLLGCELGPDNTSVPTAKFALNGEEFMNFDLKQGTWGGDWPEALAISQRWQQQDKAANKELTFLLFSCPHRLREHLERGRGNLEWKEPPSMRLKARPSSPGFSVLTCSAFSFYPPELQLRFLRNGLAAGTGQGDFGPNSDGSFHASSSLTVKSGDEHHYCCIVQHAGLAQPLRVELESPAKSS
FcRn, sequence (P61769 21-119 limits assumed, form in doubt, chain 2 of 2, further chain): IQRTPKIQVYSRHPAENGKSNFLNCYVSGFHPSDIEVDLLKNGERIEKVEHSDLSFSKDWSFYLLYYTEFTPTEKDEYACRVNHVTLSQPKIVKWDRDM
T1 sequence (P08637 other isoform, or with tags, fused parts or gaps mutant): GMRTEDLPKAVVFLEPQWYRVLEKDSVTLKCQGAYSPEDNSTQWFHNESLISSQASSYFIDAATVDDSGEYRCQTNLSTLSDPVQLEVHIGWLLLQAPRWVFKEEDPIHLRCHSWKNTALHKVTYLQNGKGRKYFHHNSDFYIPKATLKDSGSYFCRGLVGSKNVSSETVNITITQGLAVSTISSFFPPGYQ

B1: anti-EGFR FlexiMab antibody in its mAb-Val format (all native interchain cysteines substituted by valine) (antibody)
light: DIQMTQSPSSLSASVGDRVTITCQASQDISNYLNWYQQKPGKAPKLLIYDASNLETGVPSRFSGSGSGTDFTFTISSLQPEDIATYFCQHFDHLPLAFGGGTKVEIKRTVAAPSVFIFPPSDEQLKSGTASVVCLLNNFYPREAKVQWKVDNALQSGNSQESVTEQDSKDSTYSLSSTLTLSKADYEKHKVYACEVTHQGLSSPVTKSFNRGEV
heavy: QVQLQESGPGLVKPSETLSLTCTVSGGSVSSGDYYWTWIRQSPGKGLEWIGHIYYSGNTNYNPSLKSRLTISIDTSKTQFSLKLSSVTAADTAIYYCVRDRVTGAFDIWGQGTMVTVSSASTKGPSVFPLAPSSKSTSGGTAALGCLVKDYFPEPVTVSWNSGALTSGVHTFPAVLQSSGLYSLSSVVTVPSSSLGTQTYICNVNHKPSNTKVDKRV[omitted - human IgG1 Fc with C220V C226V C229V (EU numbers)]
modifications: threonine at position 225 (EU) modified post-translationally by a potential O-glycosylation
notes: Human IgG1 kappa without interchain disulphide bonds, held together non-covalently; expressed in HEK293F cells; also called anti-EGFR (mAb-Val format); anti-EGFR FlexiMab antibody variant
[1]
  binding result: no binding
FcRn
  Kd: 33.1 nM
